Source: the BET-seq Pho4 binding data (Le et al. 2018)
The other results are listed elsewhere or left out. The energies were worked out here from pooled read counts, against the library average; single values are noisy.

target: T1, Pho4 (S. cerevisiae) (UniProt P07270); assay: relative binding free energy (BET-seq); higher = weaker binding; conditions: reference: library average
T1 sequence: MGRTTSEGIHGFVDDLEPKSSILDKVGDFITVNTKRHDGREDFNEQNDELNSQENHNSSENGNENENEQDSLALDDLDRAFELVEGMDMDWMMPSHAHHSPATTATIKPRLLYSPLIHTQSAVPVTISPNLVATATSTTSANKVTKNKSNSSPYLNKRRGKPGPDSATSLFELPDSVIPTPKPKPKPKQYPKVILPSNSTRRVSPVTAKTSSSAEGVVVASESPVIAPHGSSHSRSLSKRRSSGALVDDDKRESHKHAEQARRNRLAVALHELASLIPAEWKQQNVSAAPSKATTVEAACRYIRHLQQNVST

Sequence | relative binding free energy [kcal/mol]
GGGATCACGTGGGATT | 0.21
AGGGGCACGTGGTGTG | -0.18
AAGAGCACGTGAGCGG | 0.11
AGTATCACGTGGGAGA | 0.04
GGAGGCACGTGTGCTG | 0.03
GTTCACACGTGTAGTG | 0.05
GAGTACACGTGTTGGT | 0.1
AGAGGCACGTGCCTGG | -0.22
TGTGCCACGTGGGATG | -0.22
GGCGACACGTGAGCGT | 0.25
TGGTACACGTGTGGGT | 0.12
TGAGGCACGTGGGGGT | -0.22
TGAGGCACGTGTATAG | -0.11
GGGTACACGTGAAGAT | 0.29
GGGGACACGTGATGTA | 0.11
GTTTTCACGTGTCACG | 0.37
TTTGACACGTGGTCCT | 0.02
GTATTCACGTGTGGAT | 0.19
TCGGACACGTGGGATT | -0.12
TAGGTCACGTGCAGAG | 0.17
GTGTTCACGTGAGGAT | 0.43
CAATGCACGTGTAGTT | 0.14
ATAGTCACGTGCGGGT | 0.05
TCGATCACGTGTTTGT | -0.02
AATGTCACGTGTTTTG | 0.08

Sequence | relative binding free energy [kcal/mol]
ATGAACACGTGTTTGT | -0.09
GCGCGCACGTGGGGGA | -0.15
TTCGTCACGTGTATAG | 0.05
TGTGGCACGTGTCTTG | -0.07
TGATGCACGTGCGTAG | -0.14
TGTGGCACGTGGAATG | 0.05
GGTAGCACGTGGTTAA | -0.01
ACAATCACGTGGAGGG | 0.08
TAACGCACGTGGTGTA | -0.23
TGTTCCACGTGTGATC | 0.28
TTATTCACGTGGATAC | 0.24
ATCTGCACGTGTTGTT | 0.06
CTCGTCACGTGTAGTG | 0.04
AGAGGCACGTGTGAGA | 0.09
TTAGTCACGTGGACTG | 0.03
TGCGTCACGTGGACGG | 0.05
AGATTCACGTGTACTT | 0.49
CGTTTCACGTGCTGGT | 0.18
AGGCTCACGTGTAAGG | 0.12
TCTTGCACGTGTTTGG | 0.06
AATTTCACGTGTTATG | 0.28
TGGTACACGTGCAGCG | 0.14
TAAGGCACGTGTTAGG | 0.01
AATATCACGTGGGGCT | 0.02
GAATACACGTGTTTAT | 0.24

Sequence | relative binding free energy [kcal/mol]
TTGAGCACGTGAGATA | 0.07
GTTTTCACGTGGTACA | 0.21
GGGGGCACGTGTAGAC | -0.15
TATATCACGTGAGTTC | 0.52
ATTGCCACGTGATGGT | 0.08
GTTATCACGTGCTTGT | 0.17
GGCGTCACGTGGGTTT | 0.05
TGTATCACGTGTAGAT | 0.23
TAAAGCACGTGCGGAG | -0.01
GATTACACGTGAGTTG | 0.31
AGTCGCACGTGGCTGG | -0.19
ACAGGCACGTGGGGGA | -0.26
ATCTGCACGTGGTGGT | -0.17
TGAGGCACGTGGAGAT | -0.02
GGTGTCACGTGAACTG | 0.42
TGGATCACGTGGGTAA | 0.01
CTATTCACGTGGGTGA | 0.2
GAAGTCACGTGGTGAT | 0.07
TAGGCCACGTGTTTAA | 0.02
TTGATCACGTGACTTT | 0.2
TCTAGCACGTGGGTGG | -0.24
TTTGGCACGTGTAGTG | 0.04
GTGGCCACGTGATTTG | 0.15
